# Measurements taken from PubChem BioAssay AID485360 (National Center for Advancing Translational Sciences (NCATS), 2010).
# Hit rate of the full screen: of about 230,000 compounds, about 1,500 (0.65%) were called active. The inconclusive results got no clear call from the source; some entries with a clear call stand among them for comparison. Calls follow the shape of the dose curve; as a rule, active = well fitted inhibition curve with a large enough effect; inconclusive = small, poorly fitted or top-dose-only effect; inactive = no such curve, though single readings can be large or run the other way. Potencies beside an inconclusive call are fits to weak or partial responses and may not hold up.
# Target: Lethal(3)malignant brain tumor-like protein 1 (Homo sapiens) (UniProt Q9Y468)
# Experiment: qHTS Assay for the Inhibitors of L3MBTL1; also: nearly all actives have a fitted effect of over 60% in size
# Conditions: AlphaScreen L3MBTL1–H3K9me1 peptide binding; activity, negative = inhibition: at 57.1 µM (top of the series)
# Procedure, shortened: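 L3MBTL1 50 nM + b-AHA-H3(1-15)K9me1 75 nM, 30 min RT; compound added, 30 min RT; streptavidin donor/Ni-chelate acceptor beads 10 ug/mL each final, 30 min RT dark; AlphaScreen read.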
# % is scaled to controls: 0 for no effect and ±100 for the full control effect; potency is read from the fitted curve at half-maximal effect; tags tell the direction and shape of the fitted curve.
# Chain of UniProt Q9Y468 (Q9Y468 whole entry, looked up): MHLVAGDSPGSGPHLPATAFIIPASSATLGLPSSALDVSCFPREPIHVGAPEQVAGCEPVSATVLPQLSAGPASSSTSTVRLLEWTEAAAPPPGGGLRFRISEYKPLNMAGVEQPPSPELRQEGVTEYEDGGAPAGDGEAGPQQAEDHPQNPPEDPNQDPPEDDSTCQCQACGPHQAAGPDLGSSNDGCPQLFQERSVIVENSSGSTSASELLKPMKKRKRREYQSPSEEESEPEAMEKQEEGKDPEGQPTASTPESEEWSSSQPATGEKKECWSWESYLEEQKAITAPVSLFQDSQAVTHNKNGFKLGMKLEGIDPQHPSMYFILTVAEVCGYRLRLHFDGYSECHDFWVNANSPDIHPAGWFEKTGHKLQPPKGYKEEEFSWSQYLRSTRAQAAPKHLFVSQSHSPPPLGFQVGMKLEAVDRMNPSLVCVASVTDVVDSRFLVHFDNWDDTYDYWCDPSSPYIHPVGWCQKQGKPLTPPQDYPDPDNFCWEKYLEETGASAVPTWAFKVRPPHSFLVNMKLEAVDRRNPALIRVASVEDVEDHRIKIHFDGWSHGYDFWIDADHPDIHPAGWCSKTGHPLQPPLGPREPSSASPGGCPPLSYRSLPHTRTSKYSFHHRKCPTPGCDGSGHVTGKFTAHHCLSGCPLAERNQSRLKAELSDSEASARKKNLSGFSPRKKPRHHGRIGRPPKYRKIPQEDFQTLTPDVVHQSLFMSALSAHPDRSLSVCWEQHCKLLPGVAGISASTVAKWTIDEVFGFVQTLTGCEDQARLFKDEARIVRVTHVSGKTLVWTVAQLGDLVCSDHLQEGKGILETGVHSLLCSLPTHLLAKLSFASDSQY
SMILES,"activity, negative = inhibition",Potency
Clc1ccccc1C(c1nnnn1Cc1ccco1)N1CCN(Cc2ccco2)CC1 (stereo not given),inactive: -5.76%,
O=C(CN1CCC(NC(=O)c2ccccc2F)CC1)Nc1ccc2c(c1)OCO2,,"inconclusive: 6.31 µM [inhibitor, single point]"
COc1ccc(S(=O)(=O)N2CCCC(C(=O)NCc3cccnc3)C2)cc1OC (stereo not given),,"inconclusive: 0.794 µM [inhibitor, single point]"
Cc1nc(NS(=O)(=O)c2ccccc2C)c2c3c(sc2n1)CCC3,inactive: 0.544%,
O=C(O/N=C\c1ccc(N2CCCCC2)c([N+](=O)[O-])c1)c1c(F)cccc1F,,"inconclusive: 28.2 µM [inhibitor, partial curve]"
CCC(C)Nc1nc(-c2cccc(OC)c2O)nc2ccccc12 (stereo not given),inactive: 0.274%,
O=C1Cc2ccccc2C(=O)N1OCc1ccc(Cl)cc1,,"inconclusive: 0.398 µM [inhibitor, full curve]"
O=C(/C=C/c1ccc2c(c1)OCCCO2)c1ccccc1O,inactive: -2.98%,
CCCCCC#CCC#CCC#CCC#CCCCC(=O)O,inconclusive: -96.9% [inhibitor],
O=C1CC(N2CCN(c3ccccn3)CC2)C(=O)N1CC(c1ccccc1)c1ccccc1 (stereo not given),,"inconclusive: 28.2 µM [inhibitor, single point]"
CCN1CCN(C(=O)c2oc(=O)c3ccccc3c2-c2ccc(C)cc2)CC1,,"inconclusive: 39.8 µM [inhibitor, single point]"
Nc1ccc(N2CCOCC2)c2nonc12,,"inconclusive: 17.8 µM [inhibitor, partial curve]"
Cc1cc([N+](=O)[O-])ccc1-c1ccc(C2Nc3ccccc3C(=O)N2O)o1 (stereo not given),inactive: -4.72%,
COCCSc1ccccc1C(=O)Nc1cc(C)on1,inactive: -3.3%,
O=C(N/N=C/c1cccc([N+](=O)[O-])c1)c1ccc2c(c1)OCCO2,inactive: 1.37%,
CC(C)C[C@@H](C(=O)NC1CCN(Cc2ccccc2)CC1)N1C(=O)N2CCc3c([nH]c4ccccc34)[C@@]2(C)C1=O,,"inconclusive: 31.6 µM [inhibitor, partial curve]"
O=c1cc2oc3cc(O)c(O)cc3c(-c3ccccc3O)c-2cc1O,,active: 0.794 µM
CS(=O)(=O)c1nc(-c2ccccc2)c(-c2ccccc2)[nH]1,inactive: -1.08%,
Cn1c(N)c(C(=O)COC(=O)CCC2CCCC2)c(=O)n(C)c1=O,,"inconclusive: 39.8 µM [inhibitor, partial curve, poor fit]"
Cc1cc(C)n(C(CC(=O)N2CCc3ccccc3C2)C(=O)O)n1 (stereo not given),,"inconclusive: 31.6 µM [inhibitor, single point]"
CC(C)(C)C1CCC(C(=O)OCC(=O)c2ccc[nH]2)CC1 (stereo not given),inactive: -13.1%,
CCN(CC)c1ccc(S(=O)(=O)N2CCOCC2)cc1NC(=O)CSc1ccccc1,inactive: -9.38%,
Cc1cc2nc(-c3cccc(NC(=O)c4ccc(Br)o4)c3C)oc2cc1C,,"inconclusive: 7.08 µM [inhibitor, single point]"
COC(=O)c1ccc(NC(=O)c2cccc(NC(=O)c3ccco3)c2)cc1,inactive: 4.33%,

SMILES,"activity, negative = inhibition",Potency
O=C1C=C(c2cccc(Cl)c2O)C[C@@H](c2ccc3c(c2)OCO3)C1,inactive: -12%,
Cc1ccc(C(=O)N2NC(c3ccc(F)cc3)C3C(=O)N(c4ccc(C)c(C)c4)C(=O)C32)cc1 (stereo not given),,"inconclusive: 2.24 µM [inhibitor, partial curve]"
C=CCn1c(SCC(=O)c2ccc(O)c(O)c2)nnc1-c1ccc(OC)cc1,,active: 8.91 µM
COc1ccccc1N1CCN(c2nc3ccccn3c(=O)c2C=O)CC1,,"inconclusive: 5.01 µM [inhibitor, single point]"
C=CCN1C(=O)CSc2ccc(C(=O)NCc3cccs3)cc21,,"inconclusive: 2.51 µM [inhibitor, partial curve]"
COCCN=c1scc(-c2ccccc2)n1/N=C/c1c[nH]c2ccccc12,,"inconclusive: 39.8 µM [inhibitor, single point]"
Cc1nn(CC(=O)Nc2sc3c(c2C#N)CCC(C(C)(C)C)C3)c(C)c1[N+](=O)[O-] (stereo not given),inactive: -2.37%,
Cc1ccccc1Nc1scc(-c2ccc(Br)cc2)[n+]1-c1ccccc1C,,"inconclusive: 14.1 µM [inhibitor, partial curve]"
Cc1nccn1CC(=O)N/N=C/c1ccc(O)c(O)c1,,"inconclusive: 35.5 µM [inhibitor, single point]"
N#Cc1c(-c2ccco2)cc(C2CC2)nc1SCC(=O)c1ccccc1,inactive: -4.03%,
CO[C@@H]1O[C@@H]2COC(c3ccccc3)O[C@@H]2[C@@H](OC)[C@@H]1O (stereo not given in full),,"inconclusive: 11.2 µM [inhibitor, partial curve]"
O=C(COC(=O)c1ccc([N+](=O)[O-])s1)Nc1ccccc1,,"inconclusive: 31.6 µM [inhibitor, single point]"
CC1(C)C(=O)Nc2ccccc2N1C(=O)COc1ccc(C#N)cc1,,"inconclusive: 25.1 µM [inhibitor, single point]"
COc1cccc(CNc2ccc3[nH]c(=O)[nH]c3c2)c1OCc1ccc(F)cc1,,"inconclusive: 35.5 µM [inhibitor, single point]"
Nc1ccc(-c2c3ccc(=O)cc-3oc3cc(O)ccc23)c(C(=O)O)c1,,"inconclusive: 22.4 µM [inhibitor, single point]"
CCOc1ccc2ccccc2c1C(=O)Nc1cc(=O)n(C)c(=O)n1C,,"inconclusive: 3.98 µM [inhibitor, single point]"
Cc1ccc(OCCC(=O)NNC(=O)c2nn(C)c(=O)c3ccccc23)cc1,inactive: -0.252%,
O=C(c1cccc(F)c1)N1CCN(c2cc(N3CCCCC3)c(F)cc2[N+](=O)[O-])CC1,,"inconclusive: 39.8 µM [inhibitor, single point]"
COc1cccc(CNc2ccccc2O)c1OCc1ccccc1F,,"inconclusive: 11.2 µM [inhibitor, partial curve]"
Oc1c(C(Nc2ccccn2)c2cccnc2)cc(Cl)c2cccnc12 (stereo not given),,"inconclusive: 39.8 µM [inhibitor, single point]"
Cc1cccc(C2c3[nH]c4ccccc4c3CCN2C(=O)c2cc(-c3cccn3C)n[nH]2)n1 (stereo not given),,"inconclusive: 39.8 µM [inhibitor, single point]"
COC(=O)CCCC(=O)OC,inactive: -2.31%,
COc1cc(OC)c(NC(=O)CCNS(=O)(=O)c2ccc3c(c2)oc(=O)n3C)cc1Cl,,"inconclusive: 2.82 µM [inhibitor, partial curve]"
Cc1cc(NC(=O)c2ccc(C)s2)n(-c2nc3ccccc3[nH]2)n1,,"inconclusive: 39.8 µM [inhibitor, single point]"

SMILES,"activity, negative = inhibition",Potency
N#CCCSc1ccccc1NC(=O)c1ccc(S(=O)(=O)N2CCCC2)cc1,inactive: -3.11%,
Cc1ccc(OCCC(=O)N2CCN(c3ccc(O)cc3)CC2)cc1,inactive: -24.4%,
C(=N\Nc1ccccn1)/c1ccc(N2CCOCC2)cc1,,"inconclusive: 25.1 µM [inhibitor, partial curve]"
CC(C)NC[C@@H](O)c1ccc(O)c(O)c1,inconclusive: -86.9% [inhibitor],
COc1ccc(C(NC(=O)c2cccnc2)c2cc(Cl)c3cccnc3c2O)cc1OC (stereo not given),,"inconclusive: 28.2 µM [inhibitor, single point]"
O=[N+]([O-])c1ccc(/C=N/NC(=S)Nc2ccccc2)o1,,"inconclusive: 35.5 µM [inhibitor, partial curve]"
COc1ccc(NCc2nc3ccccc3n2CCOc2ccc(C)cc2)cc1,,"inconclusive: 28.2 µM [inhibitor, single point]"
CC(=O)N1CCCc2cc(S(=O)(=O)NCCC3=CCCCC3)ccc21,,"inconclusive: 0.794 µM [inhibitor, single point]"
O=C(OCc1ccco1)c1ccc(S(=O)(=O)N2CCCCC2)cc1,,"inconclusive: 39.8 µM [inhibitor, single point]"
Nc1cc(C(=O)O)ccc1N1CCCCC1,,"inconclusive: 22.4 µM [inhibitor, single point]"
CCC(C(=O)OCC(=O)c1ccc(OC)cc1OC)c1ccccc1 (stereo not given),,"inconclusive: 28.2 µM [inhibitor, single point]"
Cc1ccc(NC(=O)c2cc(-n3cnnc3)ccc2Cl)c(C)c1,,"inconclusive: 35.5 µM [inhibitor, single point]"
CCOc1ccc(C(O)c2nccn2C)cc1 (stereo not given),,"inconclusive: 39.8 µM [inhibitor, single point]"
CCOC(=O)C1=C(CC)Nc2ccccc2N=C1NC(=O)c1ccc(OC)c(S(=O)(=O)N2CCCCC2C)c1 (stereo not given),,"inconclusive: 28.2 µM [inhibitor, single point]"
Fc1ccc(C2c3cccn3CCN2C(=S)Nc2cccc(F)c2)cc1 (stereo not given),,"inconclusive: 3.55 µM [inhibitor, partial curve]"
Cc1c(Cl)cccc1NC(=O)Cc1ccc([N+](=O)[O-])cc1,,"inconclusive: 0.141 µM [inhibitor, full curve, poor fit]"
O=C(NC1CC1)c1cc(=S)[nH]c2ccccc12,inactive: 45.9%,
CCCNNC(=O)C(O)(c1ccccc1)c1ccccc1,,"inconclusive: 0.708 µM [inhibitor, single point]"
COc1cccc(OC)c1C(=O)Nc1nc(-c2ccccc2)cs1,inactive: -11.9%,
O=[N+]([O-])c1ccccc1N/N=C\c1ccccc1F,,"inconclusive: 1.26 µM [inhibitor, partial curve]"
CCC(=O)Nc1cccc(-n2nnnc2SCC(=O)c2ccc(C)c(C)c2)c1,,"inconclusive: 35.5 µM [inhibitor, single point]"
O=C(COc1ccc(F)cc1)Nc1nccs1,,"inconclusive: 3.98 µM [inhibitor, full curve]"
